Laboratory results published in PubChem BioAssay AID2202238 (Ras Initiative Chemistry Research Team, Frederick National …, 2025).
This is one part of the list. These are further read-outs of the screen, such as a control signal, another cell line or another target. No call is given for them.

Target: GTPase KRas (Homo sapiens) (UniProt P01116)
Experiment: Fragment capture on engineered cysteines, share of protein labelled (AID 2202238)
Set-up: protein at 5 µM with 500 µM competing thiol for 1.5 h
Details: KRAS G12D cysteine mutants, disulfide tethering, MALDI-TOF labeling, stronger effect = higher value, fragment at 500 µM
[1] = measured here: G60C mutant labeling
[2] = measured here: G75C mutant labeling
[3] = measured here: H94C mutant labeling
[4] = measured here: I36C mutant labeling
[5] = measured here: L120C mutant labeling
[6] = measured here: M67C mutant labeling
[7] = measured here: M72C mutant labeling
[8] = measured here: N26C mutant labeling
[9] = measured here: N86C mutant labeling
[10] = measured here: P121C mutant labeling
[11] = measured here: S122C mutant labeling
[12] = measured here: S136C mutant labeling

UniProt P01116, sequence (P01116 whole entry, looked up, the tested form may be a part): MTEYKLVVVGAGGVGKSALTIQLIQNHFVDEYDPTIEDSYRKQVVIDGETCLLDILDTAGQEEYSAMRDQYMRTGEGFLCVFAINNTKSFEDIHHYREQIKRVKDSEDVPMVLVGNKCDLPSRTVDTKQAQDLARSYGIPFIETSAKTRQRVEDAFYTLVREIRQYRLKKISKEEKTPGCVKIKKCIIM

Structure (SMILES): O=C(NCCS)c1cccc(Oc2ccc(Cl)cc2)c1
- percent labeling [1]: 51.5%
- percent labeling [2]: 12.5%
- percent labeling [3]: 21.3%
- percent labeling [4]: 11%
- percent labeling [5]: 23.6%
- percent labeling [6]: 12.9%
- percent labeling [7]: 36.1%
- percent labeling [8]: 30.2%
- percent labeling [9]: 13.5%
- percent labeling [10]: 12.8%
- percent labeling [11]: 7.4%
- percent labeling [12]: 13.9%

Structure (SMILES): CC(C)C1N(C(=O)CCS)CC12CCS(=O)(=O)CC2 (configuration not stated)
- percent labeling [2]: 13.5%
- percent labeling [3]: 39.5%
- percent labeling [4]: 41.3%
- percent labeling [5]: 24%
- percent labeling [6]: 43.4%
- percent labeling [7]: 18.2%
- percent labeling [9]: 25.7%
- percent labeling [10]: 36%
- percent labeling [11]: 35.9%
- percent labeling [12]: 49.6%

Structure (SMILES): Cc1c(C(=O)NCCS)sc2ncn(C)c(=O)c12
- percent labeling [1]: 45.8%
- percent labeling [2]: 32.8%
- percent labeling [3]: 32%
- percent labeling [4]: 26.8%
- percent labeling [5]: 37.2%
- percent labeling [6]: 41.7%
- percent labeling [7]: 73.7%
- percent labeling [8]: 52.4%
- percent labeling [9]: 36.2%
- percent labeling [10]: 27.7%
- percent labeling [11]: 29.9%
- percent labeling [12]: 53.6%

Structure (SMILES): O=C(NCCS)c1c(C(F)(F)F)nc2ccccn12
- percent labeling [1]: 47.8%
- percent labeling [2]: 28.7%
- percent labeling [3]: 39.2%
- percent labeling [4]: 33.1%
- percent labeling [5]: 38.6%
- percent labeling [6]: 36%
- percent labeling [7]: 50%
- percent labeling [8]: 46%
- percent labeling [9]: 38.2%
- percent labeling [10]: 35.1%
- percent labeling [11]: 35.9%
- percent labeling [12]: 53.1%

Structure (SMILES): O=C(CCS)Nc1ccc(-c2nnc3n2CCC3)cc1
- percent labeling [2]: 16.9%
- percent labeling [3]: 23.1%
- percent labeling [4]: 23.1%
- percent labeling [5]: 23.2%
- percent labeling [6]: 22.5%
- percent labeling [7]: 43.9%
- percent labeling [9]: 23.3%
- percent labeling [10]: 18.8%
- percent labeling [11]: 20%
- percent labeling [12]: 28.3%

Structure (SMILES): CCC(C)c1ccccc1N1CC(C(=O)NCCS)CC1=O (configuration not stated)
- percent labeling [1]: 52.6%
- percent labeling [2]: 25.3%
- percent labeling [3]: 45.3%
- percent labeling [4]: 31.6%
- percent labeling [5]: 34.1%
- percent labeling [6]: 45.5%
- percent labeling [7]: 44.6%
- percent labeling [8]: 41.2%
- percent labeling [9]: 26.3%
- percent labeling [10]: 38.6%
- percent labeling [11]: 31.1%
- percent labeling [12]: 74.5%

Structure (SMILES): Cc1ccc(C)c(C(C(=O)NCCS)C(C)C)c1 (configuration not stated)
- percent labeling [1]: 39.4%
- percent labeling [2]: 7.8%
- percent labeling [3]: 11.2%
- percent labeling [4]: 11.9%
- percent labeling [5]: 28.3%
- percent labeling [6]: 8.2%
- percent labeling [7]: 15.6%
- percent labeling [8]: 17%
- percent labeling [9]: 3.4%
- percent labeling [10]: 7.6%
- percent labeling [11]: 10.3%
- percent labeling [12]: 29.7%

Structure (SMILES): CCN(Cc1c(CO)cnc(C)c1O)C(=O)CCS
- percent labeling [2]: 9.5%
- percent labeling [3]: 30.4%
- percent labeling [4]: 34.3%
- percent labeling [5]: 32.6%
- percent labeling [6]: 44.8%
- percent labeling [7]: 17.9%
- percent labeling [9]: 16.2%
- percent labeling [10]: 30.9%
- percent labeling [11]: 34.7%
- percent labeling [12]: 50.6%

Structure (SMILES): O=C(CN1C(=O)NC2(CCCc3ccccc32)C1=O)NCCS (configuration not stated)
- percent labeling [1]: 42.2%
- percent labeling [2]: 16%
- percent labeling [3]: 29.4%
- percent labeling [4]: 23.6%
- percent labeling [5]: 43.9%
- percent labeling [6]: 30.4%
- percent labeling [7]: 38%
- percent labeling [8]: 40.2%
- percent labeling [9]: 24.3%
- percent labeling [10]: 26.7%
- percent labeling [11]: 36.2%
- percent labeling [12]: 38.8%

Structure (SMILES): CN(Cc1ncc(Cl)n1C)C(=O)CCS
- percent labeling [2]: 14%
- percent labeling [3]: 42.5%
- percent labeling [4]: 45.7%
- percent labeling [5]: 25.2%
- percent labeling [6]: 36.2%
- percent labeling [7]: 21.1%
- percent labeling [9]: 16.7%
- percent labeling [10]: 32%
- percent labeling [11]: 28.5%
- percent labeling [12]: 59.6%

Structure (SMILES): O=C(CCS)N1CCc2nc(C3CCCCC3)[nH]c2C1
- percent labeling [2]: 11.5%
- percent labeling [3]: 28%
- percent labeling [4]: 36.5%
- percent labeling [5]: 32.8%
- percent labeling [6]: 36%
- percent labeling [7]: 23.1%
- percent labeling [9]: 20.3%
- percent labeling [10]: 22.7%
- percent labeling [11]: 25.8%
- percent labeling [12]: 48%

Structure (SMILES): O=C(CCS)N1CCC(c2csc(-c3ccc(Cl)cc3)n2)CC1
- percent labeling [2]: 10.1%
- percent labeling [3]: 43.2%
- percent labeling [4]: 16.9%
- percent labeling [5]: 18.8%
- percent labeling [6]: 14.3%
- percent labeling [7]: 58.1%
- percent labeling [9]: 14.9%
- percent labeling [10]: 9.8%
- percent labeling [11]: 4.2%
- percent labeling [12]: 23.3%

Structure (SMILES): O=C(CCC(=O)N1CCc2sccc2C1)NCCS
- percent labeling [1]: 27.6%
- percent labeling [2]: 11.7%
- percent labeling [3]: 22.8%
- percent labeling [4]: 15.6%
- percent labeling [5]: 28%
- percent labeling [6]: 24.7%
- percent labeling [7]: 12.1%
- percent labeling [8]: 24.3%
- percent labeling [9]: 15.9%
- percent labeling [10]: 21.1%
- percent labeling [11]: 20.5%
- percent labeling [12]: 27.6%

Structure (SMILES): O=C(NCCS)C1CCN(CC(F)(F)F)C1 (configuration not stated)
- percent labeling [1]: 22.1%
- percent labeling [2]: 9.1%
- percent labeling [3]: 24.3%
- percent labeling [4]: 15.4%
- percent labeling [5]: 25.1%
- percent labeling [6]: 24.3%
- percent labeling [7]: 11.3%
- percent labeling [8]: 32.6%
- percent labeling [9]: 22.7%
- percent labeling [10]: 24.4%
- percent labeling [11]: 25.7%
- percent labeling [12]: 38.4%

Structure (SMILES): N#Cc1ccccc1Oc1ccc(C(=O)NCCS)cc1Cl
- percent labeling [1]: 27.1%
- percent labeling [2]: 15.2%
- percent labeling [3]: 12.6%
- percent labeling [4]: 0%
- percent labeling [5]: 9.3%
- percent labeling [6]: 7.7%
- percent labeling [7]: 34.4%
- percent labeling [8]: 25%
- percent labeling [9]: 10.3%
- percent labeling [10]: 7.5%
- percent labeling [11]: 5.3%
- percent labeling [12]: 9.1%

Structure (SMILES): O=C(CCS)Nc1nn(Cc2ccc(F)cc2)cc1Cl
- percent labeling [2]: 16.8%
- percent labeling [3]: 33.9%
- percent labeling [4]: 36.2%
- percent labeling [5]: 35%
- percent labeling [6]: 51.1%
- percent labeling [7]: 36.4%
- percent labeling [9]: 33%
- percent labeling [10]: 29.6%
- percent labeling [11]: 24%
- percent labeling [12]: 43.8%

Structure (SMILES): CCC(C)(NC(=O)CCS)c1nc2c(c(=O)[nH]1)CCCC2 (configuration not stated)
- percent labeling [2]: 11.7%
- percent labeling [3]: 31.9%
- percent labeling [4]: 39.6%
- percent labeling [5]: 37.7%
- percent labeling [6]: 33.2%
- percent labeling [7]: 23.7%
- percent labeling [9]: 35.5%
- percent labeling [10]: 32.9%
- percent labeling [11]: 27.4%
- percent labeling [12]: 47.1%

Structure (SMILES): O=C(CCS)N1CCC(c2nc(-c3ccccc3)no2)CC1
- percent labeling [2]: 14.9%
- percent labeling [3]: 25.7%
- percent labeling [4]: 25.8%
- percent labeling [5]: 16.5%
- percent labeling [6]: 54.2%
- percent labeling [7]: 22.9%
- percent labeling [9]: 21.2%
- percent labeling [10]: 27.4%
- percent labeling [11]: 16.9%
- percent labeling [12]: 32.7%

Structure (SMILES): O=C(CCc1ccc2c(c1)NC(=O)CO2)NCCS
- percent labeling [1]: 48.5%
- percent labeling [2]: 19.2%
- percent labeling [3]: 36.1%
- percent labeling [4]: 37.5%
- percent labeling [5]: 37.6%
- percent labeling [6]: 41.2%
- percent labeling [7]: 44.2%
- percent labeling [8]: 45.9%
- percent labeling [9]: 29.8%
- percent labeling [10]: 36%
- percent labeling [11]: 34.3%
- percent labeling [12]: 45.4%

Structure (SMILES): O=C(CCS)N1CCn2c(cc3ccccc32)C1
- percent labeling [2]: 13.7%
- percent labeling [3]: 8.4%
- percent labeling [4]: 11.1%
- percent labeling [5]: 5%
- percent labeling [6]: 19.2%
- percent labeling [7]: 3.7%
- percent labeling [9]: 0%
- percent labeling [10]: 2.5%
- percent labeling [11]: 0%
- percent labeling [12]: 14.1%

Structure (SMILES): Cn1cc(C2CN(C(=O)CCS)CCO2)cn1 (configuration not stated)
- percent labeling [2]: 9%
- percent labeling [3]: 23.3%
- percent labeling [4]: 30.8%
- percent labeling [5]: 28.1%
- percent labeling [6]: 26.9%
- percent labeling [7]: 13.5%
- percent labeling [9]: 13.4%
- percent labeling [10]: 28.5%
- percent labeling [11]: 26.5%
- percent labeling [12]: 43.1%

Structure (SMILES): CC(CC(N)=O)c1ccc(NC(=O)CCS)cc1 (configuration not stated)
- percent labeling [2]: 14.5%
- percent labeling [3]: 33.7%
- percent labeling [4]: 47.3%
- percent labeling [5]: 45.3%
- percent labeling [6]: 35.7%
- percent labeling [7]: 30.7%
- percent labeling [9]: 38%
- percent labeling [10]: 38.9%
- percent labeling [11]: 33.7%
- percent labeling [12]: 57.4%

Structure (SMILES): O=C(NCCS)C1(C(F)(F)F)CC=CCO1 (configuration not stated)
- percent labeling [1]: 43.1%
- percent labeling [2]: 18.1%
- percent labeling [3]: 30.4%
- percent labeling [4]: 24.6%
- percent labeling [5]: 37.3%
- percent labeling [6]: 26%
- percent labeling [7]: 31%
- percent labeling [8]: 33.4%
- percent labeling [9]: 37.4%
- percent labeling [10]: 33.5%
- percent labeling [11]: 31.2%
- percent labeling [12]: 41.3%
